# In the supplement of paper PMC3334620:
# Over roughly 33,000 sequences, “E-score (-0.5 to 0.5)” has its median near -0.035; the highest 2% begin near 0.34. Some of the results follow.
# Molecular target: T1, Mot3 (UniProt P54785)
# T1 sequence: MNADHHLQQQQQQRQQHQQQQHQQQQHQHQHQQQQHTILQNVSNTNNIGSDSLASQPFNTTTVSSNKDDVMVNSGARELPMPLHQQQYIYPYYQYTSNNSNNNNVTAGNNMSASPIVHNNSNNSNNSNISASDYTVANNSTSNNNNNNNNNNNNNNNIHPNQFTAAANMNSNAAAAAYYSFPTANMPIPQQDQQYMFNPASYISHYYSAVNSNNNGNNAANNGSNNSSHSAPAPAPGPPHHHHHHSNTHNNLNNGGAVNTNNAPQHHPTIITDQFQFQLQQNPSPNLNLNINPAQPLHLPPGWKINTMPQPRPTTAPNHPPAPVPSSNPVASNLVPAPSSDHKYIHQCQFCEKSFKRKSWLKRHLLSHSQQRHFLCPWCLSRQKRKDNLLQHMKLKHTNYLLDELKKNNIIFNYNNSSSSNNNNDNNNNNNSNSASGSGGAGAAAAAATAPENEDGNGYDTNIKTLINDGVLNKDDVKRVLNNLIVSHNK
# Test: PBM E-score (8-mer binding enrichment) (E-score (-0.5 to 0.5)); higher = stronger / more preferred TF binding; most listed sequences are background and not binding sites
# Settings: protein concentration: 200 nM; construct: GST-full length
# Procedure, shortened: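 Yeast transcription factors carrying a GST tag, as full-length proteins or DNA-binding domains, were produced by PURExpress in vitro transcription/translation. About 100-200 nM protein was applied to universal all-10-mer Agilent arrays, double-stranded by primer extension on fresh or once-stripped slides. Bound protein was detected with fluorescent anti-GST, and scans were normalised with masliner. The Universal PBM Analysis Suite gave each ungapped eight-base word, pooled with its reverse complement, an E-score, a modified Wilcoxon-Mann-Whitney statistic.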
row,Sequence,PBM E-score
1,GGCATTAA,0.103
2,AGTCAACC,-0.188
3,GATGCTTA,-0.195
4,ATTCGATC,0.074
5,GTGGGTAA,-0.0112
6,ACTGAAGT,-0.0409
7,GACAGGCA,0.483
8,GGTATAGA,0.0233
9,AAAGTATT,-0.0686
10,CGGTGTAA,0.237
11,CACGCGCC,0.181
12,GAGCAGGC,0.23
13,ATCATAAG,0.00281
14,TAGGCCAA,-0.0777
15,AGCCCCGA,-0.21
16,AGATCCGC,-0.248
17,CAGCACAG,0.126
18,GTGTTAGA,0.14
19,GCGACTGA,-0.137
20,AGGAGTCG,-0.0368
21,CAACGATA,0.128
22,ATGCCAAC,0.0877
23,AAATCTAG,0.0254
24,CACAGCGG,-0.13
25,AATAGGGA,-0.0751

row,Sequence,PBM E-score
1,GAACAATA,0.212
2,ATTAGTGC,-0.0216
3,TCAGGCGA,-0.0408
4,GCTGGCAA,-0.143
5,CGAACCTA,-0.0603
6,ACTTGTTA,0.272
7,ACCCGCAA,-0.0644
8,CCATGCCC,-0.345
9,ATCTTCTC,0.0285
10,CTGCGCAG,-0.116
11,CCTGGATC,-0.157
12,CTCACGCA,0.103
13,CTGGGCCA,-0.275
14,ATTATAAC,0.197
15,GTGAGATA,-0.0887
16,CCTGCCCG,0.0838
17,AGAATGTG,-0.196
18,CGTACAAA,0.139
19,ATCCGAGC,-0.242
20,CCACGAAG,-0.0785
21,CCGTGCCG,-0.121
22,CTTTACCA,0.0468
23,AGACTAAA,-0.163
24,CACGCCAG,0.0478
25,AAATTTGT,0.108

row,Sequence,PBM E-score
1,AGGAAGAT,-0.271
2,GAGAAGAC,-0.042
3,CCGTCGCG,-0.128
4,CAGAAGAG,-0.269
5,ATTCCGTG,0.0245
6,ACTATCTA,0.219
7,CAGCCTCG,-0.019
8,GAGCAAGA,-0.0604
9,CCGAGAGG,-0.23
10,GTTCGGGA,0.059
11,GGTGTTTA,0.0636
12,CACAACGG,0.0565
13,CATGGCCG,0.158
14,TGCACACA,0.0915
15,CTTCGATC,-0.202
16,CCTTGAGC,-0.0057
17,GATCCGTA,-0.383
18,ATGGAAGG,0.0524
19,AGATTTAC,0.258
20,ACTGTCAT,-0.0164
21,AAGCCGTC,-0.285
22,GAACCTGC,0.178
23,ATGGTACC,0.0759
24,AAGAACAA,0.287
25,AAACAGGC,0.301

row,Sequence,PBM E-score
1,GGAGAGAA,-0.148
2,GTTCAAAC,0.0214
3,ATGAAGAG,-0.174
4,AACAGTCA,0.0177
5,ACAGTCAT,-0.0548
6,ACCGCTCC,-0.258
7,CGGTAACC,0.0547
8,AGTGGCAC,-0.263
9,AAGTGAGG,-0.165
10,CTTCGAAA,0.0268
11,ATGACTCA,-0.0353
12,ATCTACGC,0.291
13,CAAGAATA,0.0212
14,CATACTGC,-0.147
15,CCCTACCG,-0.203
16,CAGGCGGG,-0.296
17,TAAAAGAA,0.138
18,TGGTAGAA,-0.0378
19,TCGAAGCA,-0.0828
20,CGCCATAA,-0.168
21,GAGAACAC,0.155
22,GAACCACA,-0.0669
23,CGGACGTC,-0.0742
24,GACGTGAC,0.0524
25,ACCCAGAT,-0.269

row,Sequence,PBM E-score
1,ATAAGTCC,-0.152
2,AGATTTCA,0.132
3,TATTAAGA,-0.0245
4,GTATTTGA,0.0613
5,ATCTATTC,-0.0184
6,GGAGCGAA,-0.211
7,ATGGCATC,-0.162
8,GGGTCACA,-0.318
9,GGGCAGTA,-0.213
10,CGGTACGC,-0.174
11,CGTCGCAC,-0.243
12,ACGGGATG,-0.0366
13,CCTGTTCC,0.134
14,GAAAGCGA,0.0096
15,AACTGCTA,-0.0589
16,CCCAAAGA,-0.0348
17,CAGGTGTC,0.176
18,ACATCCAT,0.163
19,GATCTAGA,-0.25
20,AACTAAGA,0.0799
21,AGCCTCTG,-0.338
22,ATCTTGTA,0.286
23,TACGGACA,-0.00084
24,AGAATGTC,0.0807
25,GACAGTGA,-0.0351

row,Sequence,PBM E-score
1,ACACAATA,0.259
2,TAAGCCAA,0.00611
3,TACACGCA,0.346
4,CTCGGTCA,-0.0339
5,AAGTGATC,-0.0544
6,ATATTGGA,0.0164
7,TCAGGAAA,0.394
8,CCGAGCCA,-0.204
9,TAGTGGGA,-0.112
10,ACCCGGGG,-0.176
11,GATTACGC,0.23
12,GCGAGAGC,-0.152
13,AATTTAAT,0.162
14,AGCGAAAG,-0.111
15,AGACAATA,0.00367
16,CATTATCA,0.0439
17,ACCGCTAA,0.038
18,CGAAAGAG,-0.0479
19,TAGTATGA,0.0188
20,CAAATGCA,0.0602
21,AATTTGCT,-0.00694
22,GCAAATGA,0.0824
23,ACATAGGT,0.282
24,GCATCATA,0.134
25,GACCAACA,0.2

row,Sequence,PBM E-score
1,ATAGAAGA,0.0613
2,AGAGCCCC,-0.319
3,CCACATAC,0.088
4,ACACTTGA,-0.0599
5,GAAAGTAC,0.148
6,TCATAGAA,0.0896
7,GACGATAC,-0.00304
8,ACACACCA,0.31
9,GTAGACGA,0.0444
10,AGAGCGAG,-0.287
11,CCTACGCC,-0.0194
12,ATCACGCC,-0.058
13,CTAGAGGC,0.0525
14,GTGCCGGA,-0.187
15,CCGTCTCG,-0.0935
16,GAGTAAGA,0.125
17,GGACGGGA,-0.218
18,AACCACTA,0.0837
19,GCTTAACC,0.133
20,AGTGCAGC,-0.254
21,ACGATCGA,-0.0256
22,GTTCCTGA,0.428
23,AATATGAT,0.00576
24,AGTGACGC,-0.199
25,CGCTTTTA,0.0891

row,Sequence,PBM E-score
1,ATCACGGC,-0.0339
2,TACTGCAA,-0.0418
3,ACCTGGAG,0.0144
4,AACTTGCT,0.0474
5,TATTCCGA,-0.0677
6,ATTACGTC,0.269
7,CGCATAAC,0.00678
8,AACAAGGC,0.29
9,CACGATTC,0.065
10,GCTCGACA,-0.0507
11,CAGGCCTC,-0.252
12,GACTTCCC,-0.0179
13,CGAAACAC,0.102
14,ACAAGTCA,0.0709
15,CTGTCGGA,-0.115
16,AACATGGG,0.282
17,GGCATAAC,0.105
18,AGATGCTA,-0.0898
19,ACACGTGG,0.236
20,ATGACAGG,-0.00954
21,AAATGCAT,-0.0946
22,TGCAGGCA,0.484
23,CCAATCGC,-0.146
24,AGCAAGGC,0.15
25,ACCCTTGG,-0.167

row,Sequence,PBM E-score
1,TCCAGCCA,-0.148
2,TACAGTGA,0.0925
3,AATACAAA,0.244
4,ACGCGGTG,0.171
5,GAAGATGC,-0.166
6,AAGGGCTG,-0.256
7,CCGATATC,-0.159
8,GAACCTAA,0.0513
9,GGAGGGAA,-0.19
10,CGCCAAAC,-0.165
11,CCTATACC,-0.054
12,AGATTGGA,-0.0717
13,GGCGATCA,-0.127
14,CAGACAGG,-0.0992
15,AGGACGAA,-0.113
16,AATGCCGT,0.0189
17,TAAAGCAA,0.0809
18,CATTGCAA,0.0174
19,CTCGCCCA,-0.196
